Measured values: the supplement of paper PMC4604168 (melanoma cell lines)
The other results are listed elsewhere or left out. Many values rest on one well or one pass, so single values are uncertain.
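Also: cell number obtained by counting DAPI-stained nuclei in high-throughput microscope images with image analysis software, screen run in 1,536-well plates.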

Each molecule was assayed on SkMel28 (assay: cell count relative to DMSO control; melanoma cells; higher = more viable cells). Conditions: library dose: low library concentration; 72 h.
In the case of Cn1cc(C2=C(c3cn(C4CCN(Cc5ccccn5)CC4)c4ccccc34)C(=O)NC2=O)c2ccccc21 [Enzastaurin] + C[C@]12O[C@H](C[C@]1(O)CO)n1c3ccccc3c3c4c(c5c6ccccc6n2c5c31)CNC4=O [Lestaurtinib] (first compound 0.8 µM, partner dose 0.004 µM), the cell count is reported as 85%.
C[C@]12O[C@H](C[C@]1(O)CO)n1c3ccccc3c3c4c(c5c6ccccc6n2c5c31)CNC4=O [Lestaurtinib] + CS(=O)(=O)CCNCc1ccc(-c2ccc3ncnc(Nc4ccc(OCc5cccc(F)c5)c(Cl)c4)c3c2)o1 [lapatinib] (first compound 0.004 µM, partner dose 0.8 µM) showed a cell count of 94.8%.
Molecule C[C@]12O[C@H](C[C@]1(O)CO)n1c3ccccc3c3c4c(c5c6ccccc6n2c5c31)CNC4=O [Lestaurtinib] + Clc1ccc(Nc2nnc(Cc3ccncc3)c3ccccc23)cc1 [vatalanib] (first compound 0.004 µM, partner dose 2 µM) has a cell count of 101%.
Work on C[C@]12O[C@H](C[C@]1(O)CO)n1c3ccccc3c3c4c(c5c6ccccc6n2c5c31)CNC4=O [Lestaurtinib] + Cc1cc(Nc2cc(N3CCN(C)CC3)nc(/C=C/c3ccccc3)n2)n[nH]1 [ENMD2076] (first compound 0.004 µM, partner dose 0.04 µM) yielded a cell count of 84.3%.
C[C@]12O[C@H](C[C@]1(O)CO)n1c3ccccc3c3c4c(c5c6ccccc6n2c5c31)CNC4=O [Lestaurtinib] + C#Cc1cccc(Nc2ncnc3cc(OCCOC)c(OCCOC)cc23)c1 [erlotinib] (first compound 0.004 µM, partner dose 0.8 µM) gave a cell count of 82.2%.
C[C@]12O[C@H](C[C@]1(O)CO)n1c3ccccc3c3c4c(c5c6ccccc6n2c5c31)CNC4=O [Lestaurtinib] + Nc1ncn([C@H]2C[C@H](O)[C@@H](CO)O2)c(=O)n1 [decitabine] (first compound 0.004 µM, partner dose 0.1 µM) gave a cell count of 98.3%.
In the case of C[C@]12O[C@H](C[C@]1(O)CO)n1c3ccccc3c3c4c(c5c6ccccc6n2c5c31)CNC4=O [Lestaurtinib] + COCC[n+]1c2c(n(Cc3cnccn3)c1C)C(=O)c1ccccc1C2=O [YM155] (first compound 0.004 µM, partner dose 0.0004 µM), the cell count is reported as 125%.
C[As](C)SC[C@H](NC(=O)CC[C@H](N)C(=O)O)C(=O)NCC(=O)O [Darinaparsin] + COC(=O)c1sccc1S(=O)(=O)Nc1ccc(Nc2ccccc2)cc1OC [GSK0660] (first compound 0.4 µM, partner dose 1 µM) was tested, and the cell count was 73.9%.
C[C@]12O[C@H](C[C@]1(O)CO)n1c3ccccc3c3c4c(c5c6ccccc6n2c5c31)CNC4=O [Lestaurtinib] + C[C@]1(c2nc3c(C(N)=O)cccc3[nH]2)CCCN1 [Veliparib] (first compound 0.004 µM, partner dose 1.4 µM) showed a cell count of 96.9%.
C[As](C)SC[C@H](NC(=O)CC[C@H](N)C(=O)O)C(=O)NCC(=O)O [Darinaparsin] + O=C(Oc1ccc([N+](=O)[O-])cc1)N1CCC(C(O)(c2ccc3c(c2)OCO3)c2ccc3c(c2)OCO3)CC1 [JZL184] (first compound 0.4 µM, partner dose 1 µM) gave a cell count of 79.4%.

These molecules were tested on SkMel30 in the same assay as above. Conditions: library dose: low library concentration; 72 h.
Work on C[C@]12O[C@H](C[C@]1(O)CO)n1c3ccccc3c3c4c(c5c6ccccc6n2c5c31)CNC4=O [Lestaurtinib] + OCc1c[nH]c2ccccc12 [Indole-3-carbinol] (first compound 0.004 µM, partner dose 0.8 µM) yielded a cell count of 91.8%.
With C[C@]12O[C@H](C[C@]1(O)CO)n1c3ccccc3c3c4c(c5c6ccccc6n2c5c31)CNC4=O [Lestaurtinib] + CO[C@H]1C[C@@H]2CC[C@@H](C)[C@@](O)(O2)C(=O)C(=O)N2CCCC[C@H]2C(=O)O[C@H]([C@H](C)C[C@@H]2CC[C@@H](OCCO)[C@H](OC)C2)CC(=O)[C@H](C)/C=C(\C)[C@@H](O)[C@@H](OC)C(=O)[C@H](C)C[C@H](C)/C=C/C=C/C=C/1C [everolimus] (first compound 0.004 µM, partner dose 0.02 µM) the cell count was 59.4%.
For C[C@]12O[C@H](C[C@]1(O)CO)n1c3ccccc3c3c4c(c5c6ccccc6n2c5c31)CNC4=O [Lestaurtinib] + Cn1c(=O)n(-c2ccc(C(C)(C)C#N)cc2)c2c3cc(-c4cnc5ccccc5c4)ccc3ncc21 [NVP-BEZ235] (first compound 0.004 µM, partner dose 0.004 µM), the cell count was 88.2%.
C[C@]12O[C@H](C[C@]1(O)CO)n1c3ccccc3c3c4c(c5c6ccccc6n2c5c31)CNC4=O [Lestaurtinib] + Nc1ccn([C@@H]2O[C@H](CO)[C@@H](O)C2(F)F)c(=O)n1 [gemcitabine] (first compound 0.004 µM, partner dose 0.0004 µM) gave a cell count of 82%.
Work on Cn1cc(C2=C(c3cn(C4CCN(Cc5ccccn5)CC4)c4ccccc34)C(=O)NC2=O)c2ccccc21 [Enzastaurin] + CO[C@H]1C[C@@H]2CC[C@@H](C)[C@@](O)(O2)C(=O)C(=O)N2CCCC[C@H]2C(=O)O[C@H]([C@H](C)C[C@@H]2CC[C@@H](OCCO)[C@H](OC)C2)CC(=O)[C@H](C)/C=C(\C)[C@@H](O)[C@@H](OC)C(=O)[C@H](C)C[C@H](C)/C=C/C=C/C=C/1C [everolimus] (first compound 0.8 µM, partner dose 0.02 µM) yielded a cell count of 77.4%.
Work on C[C@]12O[C@H](C[C@]1(O)CO)n1c3ccccc3c3c4c(c5c6ccccc6n2c5c31)CNC4=O [Lestaurtinib] + Nc1cccc2c1CN(C1CCC(=O)NC1=O)C2=O [lenalidomide] (first compound 0.004 µM, partner dose 1 µM) yielded a cell count of 101%.
C[C@]12O[C@H](C[C@]1(O)CO)n1c3ccccc3c3c4c(c5c6ccccc6n2c5c31)CNC4=O [Lestaurtinib] + CN(c1ncccc1CNc1nc(Nc2ccc3c(c2)CC(=O)N3)ncc1C(F)(F)F)S(C)(=O)=O [PF562271] (first compound 0.004 µM, partner dose 0.08 µM) showed a cell count of 92.8%.
Molecule C[C@]12O[C@H](C[C@]1(O)CO)n1c3ccccc3c3c4c(c5c6ccccc6n2c5c31)CNC4=O [Lestaurtinib] + CC(=O)O[C@@]12CO[C@@H]1C[C@H](O)[C@@]1(C)C(=O)[C@H](O)C3=C(C)[C@@H](OC(=O)[C@H](O)[C@@H](NC(=O)OC(C)(C)C)c4ccccc4)C[C@@](O)([C@@H](OC(=O)c4ccccc4)[C@H]21)C3(C)C [Docetaxel] (first compound 0.004 µM, partner dose 0.0001 µM) has a cell count of 55.6%.
Work on C[As](C)SC[C@H](NC(=O)CC[C@H](N)C(=O)O)C(=O)NCC(=O)O [Darinaparsin] + O=C(Nc1ccccc1)c1cc([N+](=O)[O-])ccc1Cl [GW9662] (first compound 0.4 µM, partner dose 2 µM) yielded a cell count of 106%.
For C[As](C)SC[C@H](NC(=O)CC[C@H](N)C(=O)O)C(=O)NCC(=O)O [Darinaparsin] + Cc1cc(SCc2sc(-c3ccc(C(F)(F)F)c(F)c3)nc2C)ccc1OCC(=O)O [GW0742] (first compound 0.4 µM, partner dose 2 µM), the cell count was 130%.
Work on C[C@]12O[C@H](C[C@]1(O)CO)n1c3ccccc3c3c4c(c5c6ccccc6n2c5c31)CNC4=O [Lestaurtinib] + CCCS(=O)(=O)Nc1ccc(F)c(C(=O)c2c[nH]c3ncc(Cl)cc23)c1F [PLX4720] (first compound 0.004 µM, partner dose 0.08 µM) yielded a cell count of 68.3%.
Molecule C[C@]12O[C@H](C[C@]1(O)CO)n1c3ccccc3c3c4c(c5c6ccccc6n2c5c31)CNC4=O [Lestaurtinib] + O=C(O)[C@@H]1[O][Sb](=[O])([O][Sb]2(=[O])[O][C@H]([C@H](O)CO)[C@H](O)[C@H](C(=O)O)[O]2)[O][C@H]([C@H](O)CO)[C@@H]1O [stibogluconate] (first compound 0.004 µM, partner dose 2 µM) has a cell count of 103%.
Work on C[C@]12O[C@H](C[C@]1(O)CO)n1c3ccccc3c3c4c(c5c6ccccc6n2c5c31)CNC4=O [Lestaurtinib] + O=C(O)c1ccc2c(c1)nc(Nc1cccc(Cl)c1)c1ccncc12 [CX4945] (first compound 0.004 µM, partner dose 0.4 µM) yielded a cell count of 67.9%.
C[As](C)SC[C@H](NC(=O)CC[C@H](N)C(=O)O)C(=O)NCC(=O)O [Darinaparsin] + O=C1NC(=O)/C(=C/c2ccc(-c3ccc(F)cc3O)o2)S1 [AS252424] (first compound 0.4 µM, partner dose 1 µM) gave a cell count of 83.9%.
C[C@]12O[C@H](C[C@]1(O)CO)n1c3ccccc3c3c4c(c5c6ccccc6n2c5c31)CNC4=O [Lestaurtinib] + CC(C)C[C@H](NC(=O)[C@H](Cc1ccccc1)NC(=O)c1cnccn1)B(O)O [Bortezomib] (first compound 0.004 µM, partner dose 0.001 µM) was tested, and the cell count was 99.9%.
For C[C@]12O[C@H](C[C@]1(O)CO)n1c3ccccc3c3c4c(c5c6ccccc6n2c5c31)CNC4=O [Lestaurtinib] + N.N.[Cl][Pt][Cl] [cisplatin] (first compound 0.004 µM, partner dose 1.6 µM), the cell count was 81.7%.
